According to PubChem BioAssay AID504832 (National Center for Advancing Translational Sciences (NCATS), 2011):
Among all 310,000 compounds or so, about 18,000 (5.8%) were called active. Inconclusive means that the source gave no clear call. Such entries were picked first, then a sample of the others. Calls follow the shape of the dose curve; as a rule, active = well fitted inhibition curve with a large enough effect; inconclusive = small, poorly fitted or top-dose-only effect, or another doubt; inactive = no such curve, though single readings can be large or run the other way. Potencies of inconclusive entries are left out as doubtful fits.

Experiment: Primary qHTS for delayed death inhibitors of the malarial parasite plastid, 48 hour incubation
Details: P. falciparum luciferase growth in erythrocytes; series mostly up to 28.7 µM; activity change, negative = inhibition: at the top concentration
Summary of the method: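 Firefly luciferase activity from engineered P. falciparum reports growth; inhibitors lower the luminescent signal. Cultures contained 2% hematocrit erythrocytes at 0.1% final parasitemia.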
% is scaled to controls: 0 for no effect and ±100 for the full control effect; potency is read from the fitted curve at half-maximal effect; tags tell the direction and shape of the fitted curve.

Row | Structure (SMILES) | Potency | activity change, negative = inhibition
1 | CSC1=NP(=S)(SC)N(C)c2nc3n(c21)CCC3 (stereo not drawn) | inconclusive [inhibitor, partial curve, poor fit] | –
2 | O=c1[nH]c2ccccc2nc1/C=C(\O)C1CC1 | – | inactive: 31.5%
3 | COc1ccc(/C=N/NC(=O)c2ccncc2)cc1CN1CCOCC1 | – | inactive: 4.04%
4 | COc1ccccc1-c1nc(C#N)c(N2CCC(Cc3ccccc3)CC2)o1 | inconclusive [inhibitor, single point] | –
5 | CCOc1nc(SCCOc2ccc(Cl)cc2Cl)nc(N(C)C)n1 | inconclusive [inhibitor, single point] | –
6 | CCNC(=S)N/N=C/c1sc(N2CCCCC2)nc1-c1cccs1 | active: 0.262 µM | –
7 | Cc1cc(C)nc(N(C#N)S(=O)(=O)c2ccccc2Cl)n1 | inconclusive [inhibitor, single point] | –
8 | CCCCC(=O)N/N=C/c1c(O)n(CCCC)c(=S)[nH]c1=O | inconclusive [inhibitor, partial curve, poor fit] | –
9 | COC(=O)c1ccc(C(=O)OC)c(NC(=O)CN(C)Cc2ccccc2)c1 | inconclusive [inhibitor, single point] | –
10 | COc1ccc(-c2cc(NCc3ccccn3)n3ncnc3n2)cc1 | inconclusive [inhibitor, partial curve, poor fit] | –
11 | COc1cc(/C=C2\SC(=O)N(Cc3ccc(Cl)cc3)C2=O)cc([N+](=O)[O-])c1O | inconclusive [inhibitor, full curve] | –
12 | CCOC(=O)c1c(C)[nH]c(C)c1C(=O)COc1ncnc2cc([N+](=O)[O-])ccc12 | inconclusive [inhibitor, partial curve] | –
13 | N#Cc1cc(NC(=O)c2ccc(F)cc2)c(=O)n2c1[nH]c1ccccc12 | – | inactive: -5.47%
14 | CCCCNc1c([N+](=O)[O-])cc(C)cc1[N+](=O)[O-] | – | inactive: -14.2%
15 | CCCN(CC(=O)Nc1ccc(F)c(F)c1F)C(=O)CCc1nc2ccccc2c(=O)[nH]1 | inconclusive [inhibitor, single point] | –
16 | COc1ccc(OC)c(C(C[N+](=O)[O-])c2c(C)cc3ccccn23)c1 (stereo not drawn) | inconclusive [inhibitor, single point] | –
17 | Cc1ccc(C(=O)Nc2nnc(C3=COCCO3)o2)cc1C | – | inactive: -24.4%
18 | COc1ccc2[nH]c(C)c(CCNC(=S)Nc3cccc(C)c3)c2c1 | inconclusive [inhibitor, single point] | –
19 | CCOC(=O)c1ccc(Oc2cn[nH]c2-c2ccc(O)cc2O)cc1 | inconclusive [inhibitor, partial curve] | –
20 | Cc1ccc(NC(=O)c2ccc(NS(=O)(=O)c3cccc4cccnc34)cc2)cc1 | – | inactive: -22.9%
21 | COc1ccc(Nc2cc(C(=O)N3CCc4ccccc4C3)c3ccccc3n2)c(OC)c1 | active: 13.1 µM | –
22 | Cc1ccc(NC(=O)CSc2nnc(-c3cnccn3)n2-c2ccccc2)cc1 | inconclusive [inhibitor, single point] | –
23 | Brc1ccc(OCc2ccccc2)c(CNCc2ccncc2)c1 | active: 9.28 µM | –
24 | Cc1onc(-c2ccccc2)c1C(=O)OCC(=O)N1CCC(C)CC1 | inconclusive [inhibitor, single point] | –
25 | COc1ccc(CNC(=O)c2cc(S(=O)(=O)N3CCCC3)cn2C)cc1 | – | inactive: 49.5%

Row | Structure (SMILES) | Potency | activity change, negative = inhibition
26 | Cc1oc(-c2ccc(Cl)cc2)cc1C(=O)/C(C#N)=C/Nc1ccccc1 | inconclusive [inhibitor, single point] | –
27 | COc1ccc(/C=N/NC(=O)CCn2cnc(-c3ccccc3)c2-c2ccccc2)cc1OC | inconclusive [inhibitor, partial curve, poor fit] | –
28 | N#Cc1ccc(NC(=O)Cn2c3[n+](c4ccc(C(F)(F)F)cc42)CCCCC3)cc1 | active: 11.7 µM | –
29 | CCNC(=O)N1c2ccccc2Sc2ccccc21 | inconclusive [inhibitor, single point] | –
30 | Cc1nn(Cc2c(F)cccc2Cl)c(C)c1[N+](=O)[O-] | inconclusive [inhibitor, full curve, poor fit] | –
31 | CCOc1ccc(N(CC(=O)NC2CCCCC2)S(=O)(=O)c2c(C)noc2C)cc1 | – | inactive: 0.291%
32 | Cc1ccc(N=Nc2c(C)[nH]n(C(N)=S)c2=O)cc1C | inconclusive [inhibitor, partial curve, poor fit] | –
33 | Cc1ccc(/C=C2/Sc3ccc(C(=O)NCCN4CCOCC4)cc3NC2=O)cc1 | inconclusive [inhibitor, partial curve] | –
34 | COc1ccc(NC(=S)N2CCN(CCN=CC3=C(O)CC(c4ccccc4)CC3=O)CC2)cc1 (stereo not drawn) | inconclusive [inhibitor, partial curve, poor fit] | –
35 | COC(=O)c1ccc(CSc2ccc3nnc(-c4cccnc4)n3n2)o1 | – | inactive: 11%
36 | Cc1ccc(C(=O)Nc2cccc(C(=O)NCc3ccccc3)c2)o1 | inconclusive [inhibitor, partial curve, poor fit] | –
37 | CC(C)NC(=O)c1onc(CSc2nc3ccccc3[nH]2)c1C(=O)NC(C)C | – | inactive: 8.33%
38 | COc1cccc(CNc2ccc(F)c(Cl)c2)c1O | inconclusive [inhibitor, partial curve, poor fit] | –
39 | COc1ccc(C(NC(=O)/C=C\c2ccco2)c2ccc(OC)c(OC)c2)cc1 (stereo not drawn) | inconclusive [inhibitor, single point] | –
40 | CC(=O)Nc1ccc(OCc2cnc(Cl)s2)cc1 | – | inactive: 29.1%
41 | COc1ccc(S(=O)(=O)N(C)C)cc1NC(=O)Cc1c[nH]c2ccccc12 | inconclusive [inhibitor, partial curve, poor fit] | –
42 | COc1ccccc1CC(=O)Nc1ccc(S(=O)(=O)N2CCCCC2)cc1 | inconclusive [inhibitor, partial curve, poor fit] | –
43 | CCN(C(=O)c1cc2cc3ccc(C)cc3nc2o1)c1ccc(OC)cc1 | inconclusive [inhibitor, full curve] | –
44 | O=C(O)c1ccc(N=C2NC(=O)C(CO)(CO)S2)cc1 | – | inactive: -0.77%
45 | COc1ccc(-n2c(SCC(=O)NCCCN3CCCC3=O)nnc2C(C)N2CCCCC2)cc1 (stereo not drawn) | – | inactive: 45.8%
46 | CCN(CC(=O)Nc1ccc(OC)cc1)C(=O)c1ccc(Cl)c(S(=O)(=O)N2CCCC2)c1 | inconclusive [inhibitor, single point] | –
47 | O=C(c1ccc(Cl)cc1)C1CCCN(C2CCSCC2)C1 (stereo not drawn) | inconclusive [inhibitor, single point] | –
48 | O=C(Nc1ccc(N2CCCC2)cc1)c1cc2ccccc2o1 | inconclusive [inhibitor, partial curve, poor fit] | –
49 | CN(C)c1ccc(C(c2ccc(N(C)C)cc2)c2ccc([N+](=O)[O-])cc2)cc1 | – | inactive: -56.1%
50 | C[C@H](NC(N)=O)C(=O)OCC(=O)Nc1ccc(OC(F)F)cc1 | inconclusive [inhibitor, single point] | –

Row | Structure (SMILES) | Potency | activity change, negative = inhibition
51 | COC(=O)C(CC(=O)c1ccc(Br)cc1)n1ccnc1 (stereo not drawn) | inconclusive [inhibitor, partial curve, poor fit] | –
52 | CC(OC(=O)c1cccc(-n2cnnn2)c1)c1nc2ccccc2c(=O)[nH]1 (stereo not drawn) | inconclusive [inhibitor, single point] | –
53 | CC(C)(C)NCc1cc(Br)ccc1OCc1cccs1 | inconclusive [inhibitor, partial curve] | –
54 | O=C(N/N=C/c1ccc2c(c1)OCO2)C(O)c1ccccc1 (stereo not drawn) | – | inactive: 69.6%
55 | COc1cc(C(C)=O)ccc1OCc1cc(C(=O)N2CCSCC2)no1 | – | inactive: 45.1%
56 | COc1ccc(NC(=O)c2ccc3c(c2)OCO3)cc1[N+](=O)[O-] | – | inactive: 77.2%
57 | Cc1cc(S(=O)(=O)N2CCN(C(=O)CCC(=O)N3CCOCC3)CC2)ccc1Br | – | inactive: -13.4%
58 | Cc1ccc(C(=O)NCCCN2CCOCC2)c(Cl)c1 | – | inactive: 4.5%
59 | COc1ccc(NC(=O)/C=C/c2cc(OC)c(OC)c(OC)c2)cn1 | – | inactive: 2.98%
60 | O=C(NC1CCCCC1)C(c1ccccn1)N(C(=O)Cc1cccs1)c1ccc(Cl)cc1 (stereo not drawn) | – | inactive: -23.4%
61 | Cc1noc(C)c1COc1cccc(C(=O)N2CCN(C/C=C/c3ccccc3)CC2)c1 | active: 10.4 µM | –
62 | CCN(c1ccccc1)S(=O)(=O)c1ccc(OCC(=O)N2CCCC2)cc1 | active: 9.28 µM | –
63 | O=C(CSC1CS(=O)(=O)c2cc([N+](=O)[O-])ccc21)NNC(=O)c1ccccc1 (stereo not drawn) | inconclusive [inhibitor, partial curve, poor fit] | –
64 | Nc1cc2c(cc1[N+](=O)[O-])OCCOCCOCCO2 | – | inactive: 28.3%
65 | O=C(NNc1nc(-c2ccc(Cl)cc2)cs1)c1ccco1 | active: 11.7 µM | –
66 | COc1ccc(C2=NN(C(=O)/C=C/c3ccccc3)C(c3ccccc3)C2)c(OC(C)=O)c1 (stereo not drawn) | active: 13.1 µM | –
67 | CCCC(=O)NC(Nc1cc(C(F)(F)F)ccc1Cl)C(Cl)(Cl)Cl (stereo not drawn) | active: 11.7 µM | –
68 | CCCN1C(=O)/C(=C/c2nc3ccccc3c(=O)[nH]2)c2ccccc21 | inconclusive [inhibitor, single point] | –
69 | Cc1csc(=O)n1CCC(=O)O | – | inactive: 13.6%
70 | CCCCCCOC(=O)c1ccccc1N | – | inactive: 28.1%
71 | CCn1cc(CN(C)S(=O)(=O)c2ccc3ccccc3c2)c(C)n1 | – | inactive: -4.47%
72 | CC1(C)CN=C(Nc2ccc(F)c(Cl)c2)S1 | inconclusive [inhibitor, partial curve] | –
73 | COc1cc(C(CCN2CCOCC2)c2c(OC)cc(OC)c3c2OC(=O)CC3c2ccc(N(C)C)cc2)cc(OC)c1OC (stereo not drawn) | inconclusive [inhibitor, single point] | –
